Laboratory results as given in patent US20250354930A1, “IONIC LIQUID ENCAPSULATION OF NIR DYES FOR THE IMPROVEMENT OF BLOODSTAIN DETECTION” (University of Mississippi, priority 2024, published 2025).

Target: tryptophan residue of HSA (Homo sapiens, UniProt P02768)
Settings: condition 3: SO3SQ added to aqueous HSA solution already containing CG (1:1)

## CC1=C(c2ccc(OCCCCS(=O)(=O)O)cc2)/C(=C2/C(=O)C(c3c(-c4ccc(OCCCCS(=O)(=O)[O-])cc4)c(C)c4ccccn34)C2O)[n+]2ccccc21 (stereo not shown) [SO3SQ]
  reduction of the tryptophan fluorescence: ~90%
